Laboratory results reported in the supplement of paper PMC12067093, “Discovery and optimisation of a covalent ligand for TRIM25 and its application to targeted protein ubiquitination” (Chemical Science, 2025).
Targets with the largest changes are over-represented here; the source holds about 21,000 in all.

Compound: CC1Cc2ccccc2N1C(=O)C1CCCN(C1)C(=O)CCl (mixture of isomers) [TRIM25 ligand 11 (diastereomer mixture)]
Assay: probe-labelled cysteine peptide fold change vs DMSO (competition) (log2 fold change); higher = less target engagement (more negative = stronger competition)
Conditions: THP-1, incubation time: 4 h
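Also: competitive chemoproteomic profiling in live THP-1 cells with an iodoacetamide desthiobiotin (IA-DTB) probe, comparing probe-labelled peptide intensities in compound-treated cells against DMSO-treated controls.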

Chain of UniProt Q8N2G8 (Q8N2G8 whole entry, looked up): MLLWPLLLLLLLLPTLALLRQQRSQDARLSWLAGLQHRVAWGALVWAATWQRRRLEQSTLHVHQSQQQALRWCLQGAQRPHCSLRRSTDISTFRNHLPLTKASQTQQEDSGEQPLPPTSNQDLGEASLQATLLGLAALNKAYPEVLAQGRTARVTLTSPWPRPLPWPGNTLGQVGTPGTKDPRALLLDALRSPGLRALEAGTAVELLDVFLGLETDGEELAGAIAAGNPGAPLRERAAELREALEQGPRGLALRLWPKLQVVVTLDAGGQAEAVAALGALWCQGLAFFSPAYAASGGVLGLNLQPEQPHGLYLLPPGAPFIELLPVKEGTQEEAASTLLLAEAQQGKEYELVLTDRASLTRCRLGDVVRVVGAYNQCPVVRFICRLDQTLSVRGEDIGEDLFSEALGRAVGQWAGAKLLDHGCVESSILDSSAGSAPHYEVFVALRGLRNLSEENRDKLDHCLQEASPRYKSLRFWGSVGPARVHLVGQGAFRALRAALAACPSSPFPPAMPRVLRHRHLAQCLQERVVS
Chain of UniProt Q9Y4D8 (Q9Y4D8 whole entry, looked up): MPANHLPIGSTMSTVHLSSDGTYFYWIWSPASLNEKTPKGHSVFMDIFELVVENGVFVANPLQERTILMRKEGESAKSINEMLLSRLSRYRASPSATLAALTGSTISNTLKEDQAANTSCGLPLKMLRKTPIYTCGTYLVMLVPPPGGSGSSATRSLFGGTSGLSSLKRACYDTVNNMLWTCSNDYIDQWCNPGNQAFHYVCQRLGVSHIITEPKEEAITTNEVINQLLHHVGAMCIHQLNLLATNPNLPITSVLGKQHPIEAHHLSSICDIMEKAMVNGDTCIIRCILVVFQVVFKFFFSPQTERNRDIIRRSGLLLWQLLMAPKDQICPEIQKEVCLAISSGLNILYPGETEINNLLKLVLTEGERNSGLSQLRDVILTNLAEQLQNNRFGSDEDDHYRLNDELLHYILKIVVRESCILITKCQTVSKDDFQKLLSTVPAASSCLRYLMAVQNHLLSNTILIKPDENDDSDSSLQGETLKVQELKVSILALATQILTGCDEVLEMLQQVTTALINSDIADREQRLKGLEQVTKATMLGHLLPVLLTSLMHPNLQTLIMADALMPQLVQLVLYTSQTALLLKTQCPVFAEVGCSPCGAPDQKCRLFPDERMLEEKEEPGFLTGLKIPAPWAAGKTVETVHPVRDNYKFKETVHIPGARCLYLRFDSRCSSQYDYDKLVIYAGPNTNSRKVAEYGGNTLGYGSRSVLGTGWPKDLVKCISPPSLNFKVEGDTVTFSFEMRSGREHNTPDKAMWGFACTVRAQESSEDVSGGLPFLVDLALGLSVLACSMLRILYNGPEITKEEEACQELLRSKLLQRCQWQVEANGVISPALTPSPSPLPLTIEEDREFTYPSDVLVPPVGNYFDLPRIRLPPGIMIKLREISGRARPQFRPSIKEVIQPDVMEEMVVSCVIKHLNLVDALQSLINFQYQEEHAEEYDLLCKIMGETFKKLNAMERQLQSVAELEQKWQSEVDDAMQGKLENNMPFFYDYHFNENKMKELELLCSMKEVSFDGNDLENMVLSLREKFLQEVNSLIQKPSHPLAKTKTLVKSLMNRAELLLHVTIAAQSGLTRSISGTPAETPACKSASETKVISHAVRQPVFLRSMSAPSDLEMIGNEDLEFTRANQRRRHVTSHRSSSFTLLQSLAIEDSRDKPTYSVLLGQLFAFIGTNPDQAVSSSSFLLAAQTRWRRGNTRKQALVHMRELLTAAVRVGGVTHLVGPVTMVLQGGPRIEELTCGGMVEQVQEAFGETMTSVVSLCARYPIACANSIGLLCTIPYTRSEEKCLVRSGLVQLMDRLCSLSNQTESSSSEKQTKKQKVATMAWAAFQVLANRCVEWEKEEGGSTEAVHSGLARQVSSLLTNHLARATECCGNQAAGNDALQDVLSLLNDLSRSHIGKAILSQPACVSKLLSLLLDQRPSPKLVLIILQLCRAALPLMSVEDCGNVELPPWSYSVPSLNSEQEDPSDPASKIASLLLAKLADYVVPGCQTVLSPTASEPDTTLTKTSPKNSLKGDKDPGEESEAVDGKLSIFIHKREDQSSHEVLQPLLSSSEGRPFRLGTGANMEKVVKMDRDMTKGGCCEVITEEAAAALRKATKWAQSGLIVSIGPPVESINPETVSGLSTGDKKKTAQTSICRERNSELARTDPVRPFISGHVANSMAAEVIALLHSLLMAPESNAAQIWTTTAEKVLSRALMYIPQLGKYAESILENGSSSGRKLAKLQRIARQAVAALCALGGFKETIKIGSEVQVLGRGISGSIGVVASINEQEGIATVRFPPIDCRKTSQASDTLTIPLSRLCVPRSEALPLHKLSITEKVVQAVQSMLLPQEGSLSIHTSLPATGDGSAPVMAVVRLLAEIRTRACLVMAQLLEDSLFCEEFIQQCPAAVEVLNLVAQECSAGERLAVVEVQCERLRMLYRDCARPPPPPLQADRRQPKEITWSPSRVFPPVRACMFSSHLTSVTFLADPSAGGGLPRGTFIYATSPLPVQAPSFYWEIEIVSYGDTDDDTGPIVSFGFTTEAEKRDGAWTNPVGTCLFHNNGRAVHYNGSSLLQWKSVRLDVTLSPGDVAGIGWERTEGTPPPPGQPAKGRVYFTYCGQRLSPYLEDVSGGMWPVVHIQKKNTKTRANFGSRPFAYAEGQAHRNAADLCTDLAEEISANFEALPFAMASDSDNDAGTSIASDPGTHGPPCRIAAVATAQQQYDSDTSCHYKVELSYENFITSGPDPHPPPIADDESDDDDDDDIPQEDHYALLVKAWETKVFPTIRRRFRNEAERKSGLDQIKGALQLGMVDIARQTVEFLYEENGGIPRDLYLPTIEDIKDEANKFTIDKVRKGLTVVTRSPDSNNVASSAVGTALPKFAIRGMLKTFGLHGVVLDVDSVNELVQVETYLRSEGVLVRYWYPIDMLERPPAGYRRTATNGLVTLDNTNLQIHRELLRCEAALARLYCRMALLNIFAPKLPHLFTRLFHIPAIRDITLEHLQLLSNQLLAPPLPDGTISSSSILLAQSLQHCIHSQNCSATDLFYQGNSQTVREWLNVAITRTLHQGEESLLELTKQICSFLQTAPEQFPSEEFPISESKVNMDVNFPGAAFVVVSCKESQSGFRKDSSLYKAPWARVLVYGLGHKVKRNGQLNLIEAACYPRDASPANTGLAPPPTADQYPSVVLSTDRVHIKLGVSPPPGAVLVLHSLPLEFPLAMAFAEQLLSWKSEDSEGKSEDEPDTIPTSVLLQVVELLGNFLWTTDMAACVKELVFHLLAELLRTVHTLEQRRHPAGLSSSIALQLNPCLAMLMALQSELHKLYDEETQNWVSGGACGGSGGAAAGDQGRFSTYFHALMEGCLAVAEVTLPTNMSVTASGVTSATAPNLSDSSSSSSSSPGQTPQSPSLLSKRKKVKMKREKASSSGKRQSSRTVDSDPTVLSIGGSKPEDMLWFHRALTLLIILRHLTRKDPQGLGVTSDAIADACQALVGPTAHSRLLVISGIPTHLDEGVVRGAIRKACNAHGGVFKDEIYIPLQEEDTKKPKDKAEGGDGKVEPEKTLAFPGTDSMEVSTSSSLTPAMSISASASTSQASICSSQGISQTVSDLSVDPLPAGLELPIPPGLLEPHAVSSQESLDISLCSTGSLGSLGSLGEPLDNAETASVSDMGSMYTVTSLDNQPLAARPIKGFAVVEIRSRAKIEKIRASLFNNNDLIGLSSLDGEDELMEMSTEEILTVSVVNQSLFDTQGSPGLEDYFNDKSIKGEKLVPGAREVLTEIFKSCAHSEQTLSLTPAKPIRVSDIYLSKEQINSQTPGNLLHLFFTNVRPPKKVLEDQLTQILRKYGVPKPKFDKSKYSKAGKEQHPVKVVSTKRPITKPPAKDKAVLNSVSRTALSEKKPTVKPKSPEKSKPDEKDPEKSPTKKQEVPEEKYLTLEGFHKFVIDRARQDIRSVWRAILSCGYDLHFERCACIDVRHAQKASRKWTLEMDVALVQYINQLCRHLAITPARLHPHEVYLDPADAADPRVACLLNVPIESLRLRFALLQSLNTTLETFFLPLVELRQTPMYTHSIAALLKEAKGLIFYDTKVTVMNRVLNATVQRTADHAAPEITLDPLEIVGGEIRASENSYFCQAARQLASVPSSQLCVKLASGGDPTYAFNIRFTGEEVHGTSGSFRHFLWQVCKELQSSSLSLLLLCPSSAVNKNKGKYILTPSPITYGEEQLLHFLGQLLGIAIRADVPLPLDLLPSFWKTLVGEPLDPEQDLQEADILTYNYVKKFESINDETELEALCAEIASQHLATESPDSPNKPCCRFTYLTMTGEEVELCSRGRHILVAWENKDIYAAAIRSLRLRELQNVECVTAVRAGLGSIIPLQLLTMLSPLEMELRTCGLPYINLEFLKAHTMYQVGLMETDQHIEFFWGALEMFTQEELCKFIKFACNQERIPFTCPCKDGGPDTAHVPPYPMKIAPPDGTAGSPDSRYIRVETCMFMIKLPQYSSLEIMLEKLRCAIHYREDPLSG
Chain of UniProt O43708 (O43708 whole entry): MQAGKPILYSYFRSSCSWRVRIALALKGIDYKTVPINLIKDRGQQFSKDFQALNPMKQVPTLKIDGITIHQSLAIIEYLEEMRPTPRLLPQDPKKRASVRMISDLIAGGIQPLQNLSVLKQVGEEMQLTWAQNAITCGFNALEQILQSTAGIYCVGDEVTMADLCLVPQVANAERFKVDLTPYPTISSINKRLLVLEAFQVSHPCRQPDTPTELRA
Chain of UniProt Q9P2T1 (Q9P2T1 whole entry, looked up): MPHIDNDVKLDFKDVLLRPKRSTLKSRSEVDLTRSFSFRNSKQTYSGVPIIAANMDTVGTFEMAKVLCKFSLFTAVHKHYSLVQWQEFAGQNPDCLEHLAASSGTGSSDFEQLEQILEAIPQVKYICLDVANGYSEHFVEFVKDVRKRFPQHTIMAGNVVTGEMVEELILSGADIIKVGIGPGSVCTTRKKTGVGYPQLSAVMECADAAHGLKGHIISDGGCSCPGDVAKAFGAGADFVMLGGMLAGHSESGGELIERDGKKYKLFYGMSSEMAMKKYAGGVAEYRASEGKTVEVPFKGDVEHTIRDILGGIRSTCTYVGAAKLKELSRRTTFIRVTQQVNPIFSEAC

Target	probe-labelled cysteine peptide fold change (10 µM)	probe-labelled cysteine peptide fold change (50 µM)
HSP90AA1_P07900_597_LVTSPCCIVTSTYGWTANMER (UniProt P07900)	-0.00873	-0.167
HECTD4_Q9Y4D8-5_230_ENAAAALVALACAR (UniProt Q9Y4D8)	-0.00496	0.117
HDAC1_Q13547_12_VCYYYDGDVGNYYYGQGHPMK (UniProt Q13547)	0.0854	0.0775
GRIPAP1_Q4V328-2_502_EAEGKEEELQDVRDQLEQAQEERDCHLK (UniProt Q4V328)	-0.34	-0.278
GMPR2_Q9P2T1_224_GHIISDGGCSCPGDVAK (UniProt Q9P2T1)	0.0994	0.0252
GTSE1_Q9NYZ3_478_AQRPQSCTSVGR (UniProt Q9NYZ3)	0.0636	0.139
GBF1_Q92538_1588_LDALEWESCFNK (UniProt Q92538)	-0.0828	-0.0679
GRIN2C_Q14957_1011_TGHCGR (UniProt Q14957)	0.454	0.879
GSTZ1_O43708_205_LLVLEAFQVSHPCR (UniProt O43708)	0.0737	0.0943
GPHN_Q9NQX3_154_GSQECFQFILPALPHAIDLLR (UniProt Q9NQX3)	-0.257	-0.215
HPRT1_P00492_106_SYCNDQSTGDIK (UniProt P00492)	-0.0695	-0.0943
GOLGB1_Q14789_2664_IAELEEELVCVQK (UniProt Q14789)	0.0828	-0.0438
GMFG_O60234_87+96_VSYPLCFIFSSPVGCKPEQQMMYAGSK<|>GMFB_P60983_87+96_VSYPLCFIFSSPVGCKPEQQMMYAGSK (UniProt P60983+O60234)	-0.313	-0.29
GHDC_Q8N2G8_502_AALAACPSSPFPPAMPR (UniProt Q8N2G8)	-0.201	-0.832
GLOD4_Q9HC38_197_ALLGYADNQCK (UniProt Q9HC38)	0.0141	0.165
